The other results are listed elsewhere or left out. Repeats are few or missing, and single values can be far off.
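Also: cells treated in 1,536-well plates, then fixed and DAPI-stained, with nuclei counted from automated high-throughput microscope images.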

The assay relates to RVH-421. Put plainly: cell count relative to DMSO control; melanoma cells; higher = more viable cells. As to conditions: library dose: standard library concentration; 72 h.
Take `Cc1cc(Nc2cc(N3CCN(C)CC3)nc(Sc3ccc(NC(=O)C4CC4)cc3)n2)n[nH]1` [Tozasertib] + CC(=O)O[C@@]12CO[C@@H]1C[C@H](O)[C@@]1(C)C(=O)[C@H](O)C3=C(C)[C@@H](OC(=O)[C@H](O)[C@@H](NC(=O)OC(C)(C)C)c4ccccc4)C[C@@](O)([C@@H](OC(=O)c4ccccc4)[C@H]21)C3(C)C [Docetaxel] (first compound 0.03 µM, partner dose 0.0005 µM): the cell count came out at 62.9%.

Regarding `CC[C@]1(O)C[C@H]2CN(CCc3c([nH]c4ccccc34)[C@@](C(=O)OC)(c3cc4c(cc3OC)N(C=O)[C@H]3[C@@](O)(C(=O)OC)[C@H](OC(C)=O)[C@]5(CC)C=CCN6CC[C@]43[C@@H]65)C2)C1` [vincristine] + Oc1nc(-c2ccc(C(F)(F)F)cc2)nc2c1CSCC2 [XAV939] (first compound 0.0005 µM, partner dose 10 µM), the cell count amounted to 82.2%.

Consider `CC[C@]1(O)C[C@H]2CN(CCc3c([nH]c4ccccc34)[C@@](C(=O)OC)(c3cc4c(cc3OC)N(C=O)[C@H]3[C@@](O)(C(=O)OC)[C@H](OC(C)=O)[C@]5(CC)C=CCN6CC[C@]43[C@@H]65)C2)C1` [vincristine] + c1cc(-c2cnn3cc(-c4ccc(OCCN5CCCCC5)cc4)cnc23)ccn1 [Dorsomorphin] (first compound 0.0005 µM, partner dose 2 µM), for which the cell count turned out to be 29.6%.

As for `Cc1cc(Nc2cc(N3CCN(C)CC3)nc(Sc3ccc(NC(=O)C4CC4)cc3)n2)n[nH]1` [Tozasertib] + COc1ccc(-c2ccc3c(N4CCOCC4)nc(N4C[C@@H](C)O[C@@H](C)C4)nc3n2)cc1CO [KU0063794] (first compound 0.03 µM, partner dose 0.1 µM), the cell count came out at 79.2%.

`CC[C@]1(O)C[C@H]2CN(CCc3c([nH]c4ccccc34)[C@@](C(=O)OC)(c3cc4c(cc3OC)N(C=O)[C@H]3[C@@](O)(C(=O)OC)[C@H](OC(C)=O)[C@]5(CC)C=CCN6CC[C@]43[C@@H]65)C2)C1` [vincristine] + O=C(Nc1cc(C(F)(F)F)cc(C(F)(F)F)c1)c1cc(Cl)ccc1O [IMD0354] (first compound 0.0005 µM, partner dose 0.08 µM) yielded a cell count of 83.7%.

In the case of `N#CC[C@H](C1CCCC1)n1cc(-c2ncnc3[nH]ccc23)cn1` [ruxolitinib] + Nc1cccc2c1CN(C1CCC(=O)NC1=O)C2=O [lenalidomide] (first compound 5 µM, partner dose 5 µM), the cell count is 76%.

For the molecule `CC[C@]1(O)C[C@H]2CN(CCc3c([nH]c4ccccc34)[C@@](C(=O)OC)(c3cc4c(cc3OC)N(C=O)[C@H]3[C@@](O)(C(=O)OC)[C@H](OC(C)=O)[C@]5(CC)C=CCN6CC[C@]43[C@@H]65)C2)C1` [vincristine] + COCC[n+]1c2c(n(Cc3cnccn3)c1C)C(=O)c1ccccc1C2=O [YM155] (first compound 0.0005 µM, partner dose 0.002 µM), the cell count worked out at 86.7%.

`Cc1cc(Nc2cc(N3CCN(C)CC3)nc(Sc3ccc(NC(=O)C4CC4)cc3)n2)n[nH]1` [Tozasertib] + O=C(CCCCCCC(=O)Nc1ccccc1)NO [vorinostat] (first compound 0.03 µM, partner dose 0.4 µM) had a cell count of 91.6%.

Consider `N#CC[C@H](C1CCCC1)n1cc(-c2ncnc3[nH]ccc23)cn1` [ruxolitinib] + CN(c1ncccc1CNc1nc(Nc2ccc3c(c2)CC(=O)N3)ncc1C(F)(F)F)S(C)(=O)=O [PF562271] (first compound 5 µM, partner dose 0.4 µM), for which the cell count amounted to 88.1%.

Take `N#CC[C@H](C1CCCC1)n1cc(-c2ncnc3[nH]ccc23)cn1` [ruxolitinib] + CC(=O)O[C@@]12CO[C@@H]1C[C@H](O)[C@@]1(C)C(=O)[C@H](O)C3=C(C)[C@@H](OC(=O)[C@H](O)[C@@H](NC(=O)OC(C)(C)C)c4ccccc4)C[C@@](O)([C@@H](OC(=O)c4ccccc4)[C@H]21)C3(C)C [Docetaxel] (first compound 5 µM, partner dose 0.0005 µM): the cell count was 59%.

With `N#CC[C@H](C1CCCC1)n1cc(-c2ncnc3[nH]ccc23)cn1` [ruxolitinib] + C=C(c1ccc(C(=O)O)cc1)c1cc2c(cc1C)C(C)(C)CCC2(C)C [Bexarotene] (first compound 5 µM, partner dose 10 µM), the cell count stood at 101%.

In turn, `CC[C@]1(O)C[C@H]2CN(CCc3c([nH]c4ccccc34)[C@@](C(=O)OC)(c3cc4c(cc3OC)N(C=O)[C@H]3[C@@](O)(C(=O)OC)[C@H](OC(C)=O)[C@]5(CC)C=CCN6CC[C@]43[C@@H]65)C2)C1` [vincristine] + O=S(=O)(c1ccccc1)N(CC(F)(F)F)c1ccc(C(O)(C(F)(F)F)C(F)(F)F)cc1 [T0901317] (first compound 0.0005 µM, partner dose 7 µM) returned a cell count of 78.8%.

In the case of `Cc1cc(Nc2cc(N3CCN(C)CC3)nc(Sc3ccc(NC(=O)C4CC4)cc3)n2)n[nH]1` [Tozasertib] + COc1ccc(C2=N[C@@H](c3ccc(Cl)cc3)[C@@H](c3ccc(Cl)cc3)N2C(=O)N2CCNC(=O)C2)c(OC(C)C)c1 [Nutlin-3] (first compound 0.03 µM, partner dose 0.5 µM), the cell count stood at 83%.

On to `CC[C@]1(O)C[C@H]2CN(CCc3c([nH]c4ccccc34)[C@@](C(=O)OC)(c3cc4c(cc3OC)N(C=O)[C@H]3[C@@](O)(C(=O)OC)[C@H](OC(C)=O)[C@]5(CC)C=CCN6CC[C@]43[C@@H]65)C2)C1` [vincristine] + CS(=O)(=O)c1ccc(C(=O)Nc2ccc(Cl)c(-c3ccccn3)c2)c(Cl)c1 [vismodegib] (first compound 0.0005 µM, partner dose 5 µM), for which the cell count was found to be 85.4%.

As for `CC[C@]1(O)C[C@H]2CN(CCc3c([nH]c4ccccc34)[C@@](C(=O)OC)(c3cc4c(cc3OC)N(C=O)[C@H]3[C@@](O)(C(=O)OC)[C@H](OC(C)=O)[C@]5(CC)C=CCN6CC[C@]43[C@@H]65)C2)C1` [vincristine] + C#Cc1cccc(Nc2ncnc3cc(OCCOC)c(OCCOC)cc23)c1 [erlotinib] (first compound 0.0005 µM, partner dose 4 µM), the cell count stood at 31.8%.

Turning to `Cc1cc(Nc2cc(N3CCN(C)CC3)nc(Sc3ccc(NC(=O)C4CC4)cc3)n2)n[nH]1` [Tozasertib] + Cc1cn(-c2cc(NC(=O)c3ccc(C)c(Nc4nccc(-c5cccnc5)n4)c3)cc(C(F)(F)F)c2)cn1 [nilotinib] (first compound 0.03 µM, partner dose 1 µM), the cell count turned out to be 83.6%.

Consider `Cc1cc(Nc2cc(N3CCN(C)CC3)nc(Sc3ccc(NC(=O)C4CC4)cc3)n2)n[nH]1` [Tozasertib] + O=C(O)C(=O)Nc1sc2c(c1C(=O)O)CCNC2 [TCS401] (first compound 0.03 µM, partner dose 8.33333 µM), for which the cell count stood at 91.2%.

In turn, `Cc1cc(Nc2cc(N3CCN(C)CC3)nc(Sc3ccc(NC(=O)C4CC4)cc3)n2)n[nH]1` [Tozasertib] + O=S(=O)(c1ccccc1)N(CC(F)(F)F)c1ccc(C(O)(C(F)(F)F)C(F)(F)F)cc1 [T0901317] (first compound 0.03 µM, partner dose 7 µM) had a cell count of 84.3%.

With `CC[C@]1(O)C[C@H]2CN(CCc3c([nH]c4ccccc34)[C@@](C(=O)OC)(c3cc4c(cc3OC)N(C=O)[C@H]3[C@@](O)(C(=O)OC)[C@H](OC(C)=O)[C@]5(CC)C=CCN6CC[C@]43[C@@H]65)C2)C1` [vincristine] + O=C(/C=C/c1cccnc1)NCCCCC1CCN(C(=O)c2ccccc2)CC1 [FK866] (first compound 0.0005 µM, partner dose 0.05 µM), the cell count amounted to 37.8%.

Molecule `Cc1cc(Nc2cc(N3CCN(C)CC3)nc(Sc3ccc(NC(=O)C4CC4)cc3)n2)n[nH]1` [Tozasertib] + OCCn1cc(-c2cnc3nnn(Cc4ccc5ncccc5c4)c3n2)cn1 [PF04217903] (first compound 0.03 µM, partner dose 5 µM) came in with a cell count of 12%.

As to `CC[C@]1(O)C[C@H]2CN(CCc3c([nH]c4ccccc34)[C@@](C(=O)OC)(c3cc4c(cc3OC)N(C=O)[C@H]3[C@@](O)(C(=O)OC)[C@H](OC(C)=O)[C@]5(CC)C=CCN6CC[C@]43[C@@H]65)C2)C1` [vincristine] + C[C@@H]1CCN(C(=O)CC#N)C[C@@H]1N(C)c1ncnc2[nH]ccc12 [CP690550] (first compound 0.0005 µM, partner dose 5 µM), the cell count turned out to be 60.2%.

The molecule `Cc1cc(Nc2cc(N3CCN(C)CC3)nc(Sc3ccc(NC(=O)C4CC4)cc3)n2)n[nH]1` [Tozasertib] + CCCCCCCCCCCCCCCCCCOP(=O)([O-])OC1CC[N+](C)(C)CC1 [Perifosine] (first compound 0.03 µM, partner dose 2 µM) displayed a cell count of 78.6%.

In turn, `CC[C@]1(O)C[C@H]2CN(CCc3c([nH]c4ccccc34)[C@@](C(=O)OC)(c3cc4c(cc3OC)N(C=O)[C@H]3[C@@](O)(C(=O)OC)[C@H](OC(C)=O)[C@]5(CC)C=CCN6CC[C@]43[C@@H]65)C2)C1` [vincristine] + CCCS(=O)(=O)Nc1ccc(F)c(C(=O)c2c[nH]c3ncc(Cl)cc23)c1F [PLX4720] (first compound 0.0005 µM, partner dose 0.4 µM) gave a cell count of 75.5%.

Regarding `Cc1cc(Nc2cc(N3CCN(C)CC3)nc(Sc3ccc(NC(=O)C4CC4)cc3)n2)n[nH]1` [Tozasertib] + Cc1nc(Nc2ncc(C(=O)Nc3c(C)cccc3Cl)s2)cc(N2CCN(CCO)CC2)n1 [dasatanib] (first compound 0.03 µM, partner dose 0.02 µM), the cell count came out at 52.2%.
